Reference: patent EP1179050B1, “METHOD FOR THE PURIFICATION OF PROTEIN KINASE BY AFFINITY CHROMATOGRAPHY” (University of Tartu, priority 1999, dated 2000)
For some assays here: At least one peptide structure holds a part that was inferred or is arguable (an end, a ring closure or a residue). For some assays here: For at least one compound, name, drawing or mass did not settle the structure. *1 amine or outer side, *2 acyl side, *3 side chain or, on linkers, in order; H or OH if unused. Where a SMILES comes first, the peptide text is derived from it. The star is where a group is joined. Adenosine(5'-uronoyl) = Nc1ncnc2c1ncn2[C@@H]1O[C@H](C(=O)*)[C@@H](O)[C@H]1O; βAsp = O=C(O)[C@H](CC(=O)[*:2])N[*:1]

Experiments:
protein kinase CK1 = experiment: Protein kinase CK1 activity inhibition, casein substrate, [γ-32P]ATP phosphocellulose paper assay; type: biochemical, rat; conditions: 30°C, pH 7.5, 1 mg/mL casein, 30 µM [γ-32P] ATP
[1] = target: Protein kinase C β isoform (PKC); experiment: Protein kinase C β (PKC) activity inhibition, [γ-32P]ATP phosphocellulose paper assay; type: biochemical, pig; conditions: 30°C, pH 7.5, 15 µM substrate peptide, 30 µM [γ-32P] ATP
[2] = target: Ca^2+-dependent protein kinase (CDPK-1); experiment: Ca2+-dependent protein kinase (CDPK-1) activity inhibition, [γ-32P]ATP phosphocellulose paper assay; type: biochemical, maize; conditions: 30°C, pH 7.5, 50 µM substrate peptide, 30 µM [γ-32P]ATP
[3] = target: catalytic subunit of murine PKA (Mus musculus, UniProt P05132); experiment: Protein kinase A (PKA) activity inhibition, [γ-32P]ATP phosphocellulose paper assay; type: biochemical; conditions: read-out: IC50 (µM) PKA; 30°C, pH 7.5, 100 µM Kemptide, 30 µM [γ-32P] ATP
Protein Kinase C = experiment: Inhibition constant for PKC (Table 3); type: biochemical
protein kinase CK2 = protein kinase CK2 (Rattus norvegicus, UniProt P19139); experiment: Protein kinase CK2 activity inhibition, casein substrate, [γ-32P]ATP phosphocellulose paper assay; type: biochemical; conditions: 30°C, pH 7.5, 1 mg/mL casein, 30 µM [γ-32P] ATP; n. i. means no inhibition at 100 µM concentration of ligand
Chain of protein kinase CK2 (P19139 whole entry): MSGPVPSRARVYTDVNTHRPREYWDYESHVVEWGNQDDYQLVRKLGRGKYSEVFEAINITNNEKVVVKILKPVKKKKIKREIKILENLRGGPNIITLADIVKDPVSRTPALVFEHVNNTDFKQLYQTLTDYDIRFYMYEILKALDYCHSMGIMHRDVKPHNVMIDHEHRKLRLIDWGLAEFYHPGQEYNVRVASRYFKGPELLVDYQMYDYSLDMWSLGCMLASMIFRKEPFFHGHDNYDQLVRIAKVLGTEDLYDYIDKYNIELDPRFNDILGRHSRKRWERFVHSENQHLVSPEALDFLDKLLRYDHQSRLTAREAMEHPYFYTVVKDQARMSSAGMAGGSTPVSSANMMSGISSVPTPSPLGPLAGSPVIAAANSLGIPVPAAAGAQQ

| Structure (SMILES) | IC50 (protein kinase CK1) [µM] | IC50 [1] [µM] | IC50 [2] [µM] | IC50 [3] [µM] | Ki (Protein Kinase C) [nM] | IC50 (protein kinase CK2) [µM] |
| --- | --- | --- | --- | --- | --- | --- |
| N=C(N)NCCC[C@H](NC(=O)[C@H](CCCNC(=N)N)NC(=O)[C@H](CCCNC(=N)N)NC(=O)[C@H](CCCNC(=N)N)NC(=O)[C@H](CCCNC(=N)N)NC(=O)[C@H](CCCNC(=N)N)NC(=O)CCNC(=O)[C@H]1O[C@@H](n2cnc3c(N)ncnc32)[C@H](O)[C@@H]1O)C(=O)O [Inhibitor V, AdoC(β-Ala)Arg6] | > 30 | 3 ± 0.2 | 38 ± 7 | – | – | – |
| N=C(N)NCCC[C@H](NC(=O)[C@H](CCCNC(=N)N)NC(=O)[C@H](CCCNC(=N)N)NC(=O)[C@H](CCCNC(=N)N)NC(=O)[C@H](CCCNC(=N)N)NC(=O)[C@H](CCCNC(=N)N)NC(=O)CCCCCCCCCCNC(=O)[C@H]1O[C@@H](n2cnc3c(N)ncnc32)[C@H](O)[C@@H]1O)C(=O)O [Inhibitor IX, AdoC(Aun)Arg6] | > 30 | 0.32 ± 0.02 | 4.9 ± 0.5 | 0.33 ± 0.02 | – | – |
| N=C(N)NCCC[C@H](NC(=O)[C@H](CCCNC(=N)N)NC(=O)[C@H](CCCNC(=N)N)NC(=O)[C@H](CCCNC(=N)N)NC(=O)[C@H](CCCNC(=N)N)NC(=O)[C@H](CCCNC(=N)N)NC(=O)CCCCCCCNC(=O)[C@H]1O[C@@H](n2cnc3c(N)ncnc32)[C@H](O)[C@@H]1O)C(=O)O [Inhibitor VIII, AdoC(Aoc)Arg6] | > 30 | – | 3.2 ± 0.1 | – | – | – |
| N=C(N)NCCC[C@H](NC(=O)[C@H](CCCNC(=N)N)NC(=O)[C@H](CCCNC(=N)N)NC(=O)[C@H](CCCNC(=N)N)NC(=O)[C@H](CCCNC(=N)N)NC(=O)[C@H](CCCNC(=N)N)NC(=O)CCCNC(=O)[C@H]1O[C@@H](n2cnc3c(N)ncnc32)[C@H](O)[C@@H]1O)C(=O)O [Inhibitor VI, AdoC(GABA)Arg6] | > 30 | 1.5 ± 0.1 | 19 ± 2 | – | – | – |
| N=C(N)NCCC[C@H](NC(=O)[C@H](CCCNC(=N)N)NC(=O)[C@H](CCCNC(=N)N)NC(=O)[C@H](CCCNC(=N)N)NC(=O)[C@H](CCCNC(=N)N)NC(=O)[C@H](CCCNC(=N)N)NC(=O)CCCCCNC(=O)[C@H]1O[C@@H](n2cnc3c(N)ncnc32)[C@H](O)[C@@H]1O)C(=O)O [Inhibitor VII, AdoC(Ahx)Arg6] | > 30 | – | 1.2 ± 0.2 | – | 6.32 | – |
| C[C@H](NC(=O)CCNC(=O)CCNC(=O)[C@H]1O[C@@H](n2cnc3c(N)ncnc32)[C@H](O)[C@@H]1O)C(=O)N[C@@H](CCCNC(=N)N)C(=O)N[C@@H](CCCNC(=N)N)C(=O)N[C@@H](CCCNC(=N)N)C(=O)N[C@@H](CCCNC(=N)N)C(=O)N[C@@H](CCCNC(=N)N)C(=O)N[C@@H](CCCNC(=N)N)C(=O)O [Inhibitor I, AdoC(β-Ala )2AlaArg6] | > 100 | 2.8 ± 0.3 | 16 ± 4 | – | – | – |
| N=C(N)NCCC[C@H](NC(=O)[C@H](CCCNC(=N)N)NC(=O)[C@H](CCCNC(=N)N)NC(=O)[C@H](CCCNC(=N)N)NC(=O)[C@H](CCCNC(=N)N)NC(=O)[C@H](CCCNC(=N)N)NC(=O)CNC(=O)[C@H]1O[C@@H](n2cnc3c(N)ncnc32)[C@H](O)[C@@H]1O)C(=O)O [Inhibitor IV, AdoCGlyArg6] | > 30 | 10 ± 1 | 67 ± 7 | – | – | – |
| C[C@H](NC(=O)C[C@H](NC(=O)C[C@H](NC(=O)[C@H]1O[C@@H](n2cnc3c(N)ncnc32)[C@H](O)[C@@H]1O)C(=O)O)C(=O)O)C(=O)N[C@@H](CCCNC(=N)N)C(=O)N[C@@H](CCCNC(=N)N)C(=O)N[C@@H](CCCNC(=N)N)C(=O)N[C@@H](CCCNC(=N)N)C(=O)N[C@@H](CCCNC(=N)N)C(=O)N[C@@H](CCCNC(=N)N)C(=O)O [Inhibitor III, AdoC(β-Asp)2AlaArg6] ({Adenosine(5'-uronoyl)-βAsp-βAsp}-ARRRRRR-OH; C-terminus assumed) | – | – | – | 11.1 ± 0.6 | – | > 30 |
